In article PMC4336329 (PLoS ONE, 2015):
About 2,200 (0.71%) of roughly 310,000 compounds showed an effect of 50% or more. The effect is printed as a negative number. The list shows a part of the results.

biological target: human ether-à-go-go-related gene (hERG) potassium channel (human, UniProt Q12809); test: primary screen, population patch clamp on CHO cells stably expressing hERG
Sequence (Q12809 whole entry, looked up): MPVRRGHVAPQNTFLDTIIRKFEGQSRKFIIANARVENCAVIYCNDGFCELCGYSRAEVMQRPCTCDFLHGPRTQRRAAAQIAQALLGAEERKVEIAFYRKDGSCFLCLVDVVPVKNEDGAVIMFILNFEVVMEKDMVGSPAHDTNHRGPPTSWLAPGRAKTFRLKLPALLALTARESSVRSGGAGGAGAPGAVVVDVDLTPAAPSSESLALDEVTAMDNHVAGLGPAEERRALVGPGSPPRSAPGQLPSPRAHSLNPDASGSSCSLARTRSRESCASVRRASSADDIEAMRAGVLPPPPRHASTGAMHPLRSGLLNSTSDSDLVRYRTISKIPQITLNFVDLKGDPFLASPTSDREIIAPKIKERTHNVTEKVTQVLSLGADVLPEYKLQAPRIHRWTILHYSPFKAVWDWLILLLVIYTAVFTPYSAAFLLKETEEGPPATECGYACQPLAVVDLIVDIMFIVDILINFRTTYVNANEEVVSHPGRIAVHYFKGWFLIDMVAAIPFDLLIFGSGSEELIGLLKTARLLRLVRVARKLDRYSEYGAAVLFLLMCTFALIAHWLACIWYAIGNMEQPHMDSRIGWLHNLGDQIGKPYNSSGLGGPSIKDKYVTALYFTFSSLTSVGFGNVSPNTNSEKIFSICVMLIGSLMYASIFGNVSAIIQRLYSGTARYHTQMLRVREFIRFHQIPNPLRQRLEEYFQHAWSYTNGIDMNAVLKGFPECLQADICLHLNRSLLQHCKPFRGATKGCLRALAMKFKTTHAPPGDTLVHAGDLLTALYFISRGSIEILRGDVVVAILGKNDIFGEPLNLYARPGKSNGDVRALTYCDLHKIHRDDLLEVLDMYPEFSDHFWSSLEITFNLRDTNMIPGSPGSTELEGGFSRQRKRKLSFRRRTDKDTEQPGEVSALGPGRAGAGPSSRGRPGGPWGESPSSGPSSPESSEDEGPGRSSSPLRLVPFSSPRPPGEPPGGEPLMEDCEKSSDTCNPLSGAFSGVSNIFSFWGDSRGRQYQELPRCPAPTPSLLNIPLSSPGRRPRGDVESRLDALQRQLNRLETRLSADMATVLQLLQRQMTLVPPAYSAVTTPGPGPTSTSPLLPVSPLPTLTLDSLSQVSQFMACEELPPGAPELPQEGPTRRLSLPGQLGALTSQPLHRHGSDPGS

SMILES | hERG current change (%, negative = inhibition) at 1uM [%]
Cn1c(=O)cc(Nc2ccccc2)[nH]c1=O | 30.1
C=C(Cl)COc1cc(C)cc2oc(=O)cc(CC)c12 | 11.6
COCC(=O)N1CCC(Oc2ccc(C(=O)NCc3cnc(C)cn3)cc2)CC1 | 13
COc1ccc(NS(=O)(=O)c2cccc(C(=O)Nc3ccccc3C(=O)O)c2)cc1 | 12.1
COCCCNC(=S)NNC(=O)c1cc(Cl)c(O)c(Cl)c1 | 11.3
CCc1ccc(CNCCNCC(C)O)cc1.Cl (centres unmarked) | 5.43
Nc1nc(SCC(=O)Nc2ccccc2)[nH]c(=O)c1-c1ccccc1 | 7.28
COc1ccc(CCN2CN(S(=O)(=O)c3ccc(OC)cc3)c3nc4ccccc4nc32)cc1 | 12.3
CCc1ccc(NC(=O)CSc2nc3ccccc3c(=O)n2CCCC(=O)NCCCN2CCOCC2)cc1 | -26.4
CC(C)Oc1ccc(CN=C(N)N=C(N)N)cc1Cl | 12.8
S=C(NCCc1ccccc1)N/N=C/c1cccs1 | 12.5
Nn1c(SCc2nc3ccccc3[nH]2)nnc1-c1ccccc1 | 14
Cc1ccc(Cl)cc1NC(=S)N(CCCN1CCOCC1)Cc1ccco1 | -3.45
CCOC(=O)Cc1c(C)nc2c(-c3ccccc3OC)c(C)nn2c1C | -2.56
CCN(C(=O)COC(=O)c1cccnc1SC)C1CCS(=O)(=O)C1 (centres unmarked) | 13
C#Cc1cccc(NC(=O)CSc2nnc(-c3ccc(C(F)(F)F)cn3)o2)c1 | 9.17
C/C(=N\NC(=O)c1ccc(C)cc1)c1c(C)[nH]n(-c2ccccc2)c1=O | 12.8
O=C(Cn1c(C(=O)NCCCN2CCOCC2)cc2sccc21)c1ccccc1 | 12
CC1CN(C(=O)COC(=O)c2nn(-c3ccccc3)c(=O)c3ccccc23)CC(C)O1 (centres unmarked) | 16.8
COc1ccc(CN2C3CCCC2CC(NC(=O)Nc2cccc(C)c2)C3)cc1 (centres unmarked) | -71.5
COC(=O)Nc1ccc(S(=O)(=O)N2CCCC(C(=O)NC3CCS(=O)(=O)C3)C2)cc1 (centres unmarked) | 7.53
O=C(/C=C/c1ccccc1[N+](=O)[O-])c1ccccc1Br | 11.1

SMILES | hERG current change (%, negative = inhibition) at 1uM [%]
O=C(NCCc1ccccc1)c1ccc(-n2cnnn2)cc1 | 4.61
COc1ccccc1OCCC(=O)Nc1cccc(S(=O)(=O)N2CCCCC2)c1 | 13.7
COc1cc(C(C(=O)NC(C)(C)C)N(Cc2ccc3c(c2)OCO3)C(=O)c2cnccn2)cc(OC)c1OC (centres unmarked) | 10.5
CCC(=Nc1ccc(OC)cc1OC)c1c(O)[nH]c(=O)[nH]c1=O | 14.4
Cc1sc(NC(=O)CCCC(=O)O)c(C#N)c1C | 3.88
CS(=O)(=O)N(CC(O)Cn1c2ccccc2c2ccccc21)c1ccccc1 (centres unmarked) | 10.5
CNC(=S)NC1CC2CCCC(C1)N2Cc1ccccc1OC (centres unmarked) | 7.16
O=C(Cn1c(-c2cncs2)nc2ccccc21)NC1CCCC1 | -1.71
COCCn1c(C)c(C(=O)O)sc1=S | 5.64
CON(C)S(=O)(=O)c1ccc2c(c1)NC(=O)C1CCCN21 (centres unmarked) | 3.24
CC1CCCN(C(=O)COC(=O)Cc2c(F)cccc2Cl)C1 (centres unmarked) | 6.83
O=C1N(c2ccccc2)C2CS(=O)(=O)CC2N1c1ccc(Br)cc1 (centres unmarked) | -11.6
O=C(Nc1ccccc1)c1ccc(NCCN2C(=O)CCC2=O)c([N+](=O)[O-])c1 | 12.7
CNC(=O)Oc1ccc2c(c1)[C@]1(C)CCN(C)C1N2C.O=S(=O)(O)O (some centres unmarked) | 8.03
CC12CC(O)C3c4ccc(O)cc4CCC3C1CCC2=O (centres unmarked) | 17.5
Cc1ccc(C(C(=O)NC2CCCC2)N(Cc2ccco2)C(=O)CCC(=O)Nc2cc(C)on2)cc1 (centres unmarked) | 14.8
CC(=O)C1=C(c2ccccc2)NC(=O)NC1c1ccc2c(c1)OCO2.CC(=O)O (centres unmarked) | 18.4
Cc1ccccc1/C=N\NC(=O)c1csnn1 | 5.9
Cc1ccc(NC(=O)CSc2nnc([C@@H](N)Cc3c[nH]c4ccccc34)o2)c(C)c1.Cl | 0.382
COC(=O)CSc1nc2ccc(N)cc2s1 | 13.1
Cc1ccccc1OCCC(=O)Nc1cccc(S(=O)(=O)Nc2ccccc2Cl)c1 | 6.96
CCCCN(CC)c1nc(N)c2c(N)nc(OCC)cc2c1C#N | 22.9
